From patent publication US4228292A, “N-Substituted benzothiazolines and benzoxazolines and their use as herbicides and plant growth regulants” (Monsanto Company, priority 1978, dated 1980)
Values joined by “and” are separate entries in the source; they are usually repeats but may differ in a detail not shown here. Equal entries are not always repeated. The name of at least one read-out is uncertain. Some ranges recur; such a range may be that of the whole group of compounds.

Key:
Type in all cases: in vivo
Cocklebur [1] = test: pre-emergent herbicidal test; conditions: B, 4 WAT
Lambsquarters [2] = test: pre-emergent herbicidal test; conditions: E, 4 WAT
Quackgrass [3] = test: pre-emergent herbicidal test; conditions: H; 11.2 kg/h; 4 WAT
Downy Brome [4] = test: post-emergent herbicidal test; conditions: J, 4 WAT
Smartweed [5] = test: post-emergent herbicidal test; conditions: F, 4 WAT
Lambsquarters [6] = test: post-emergent herbicidal test; conditions: E, 4 WAT
Nutsedge [7] = test: post-emergent herbicidal test; conditions: G, 4 WAT
Quackgrass [8] = test: post-emergent herbicidal test; conditions: H, 4 WAT
Johnson Grass [9] = test: post-emergent herbicidal test; conditions: I, 4 WAT
Downy Brome [10] = test: pre-emergent herbicidal test; conditions: J, 4 WAT
Morning Glory [11] = test: post-emergent herbicidal test; conditions: D, 4 WAT
Morning Glory [12] = test: pre-emergent herbicidal test; conditions: D, 4 WAT
Johnson Grass [13] = test: pre-emergent herbicidal test; conditions: I; 11.2 kg/h; 4 WAT
Cocklebur [14] = test: post-emergent herbicidal test; conditions: B, 4 WAT
Nutsedge [15] = test: pre-emergent herbicidal test; conditions: G; 11.2 kg/h; 4 WAT
Barnyard Grass [16] = test: post-emergent herbicidal test; conditions: K, 4 WAT
Velvetleaf [17] = test: pre-emergent herbicidal test; conditions: C, 4 WAT
Velvetleaf [18] = test: post-emergent herbicidal test; conditions: C, 4 WAT
Barnyard Grass [19] = test: pre-emergent herbicidal test; conditions: K, 4 WAT
Canada Thistle [20] = test: post-emergent herbicidal test; conditions: A, 4 WAT
Smartweed [21] = test: pre-emergent herbicidal test; conditions: F, 4 WAT
Canada Thistle [22] = test: pre-emergent herbicidal test; conditions: A; 11.2 kg/h; 4 WAT

Structure (SMILES): COC(=N)Cn1c(=O)sc2ccccc21 [Compound 11]
- pre-emergent herbicidal rating (Cocklebur [1]; 1.12 kg/h): 1 (25-49)
- pre-emergent herbicidal rating (Cocklebur [1]; 5.6 kg/h): 2 (50-74)
- pre-emergent herbicidal rating (Cocklebur [1]; 11.2 kg/h): 2 (50-74)
- pre-emergent herbicidal rating (Lambsquarters [2]; 1.12 kg/h): 1 (25-49)
- pre-emergent herbicidal rating (Lambsquarters [2]; 5.6 kg/h): 3 (75-100)
- pre-emergent herbicidal rating (Lambsquarters [2]; 11.2 kg/h): 3 (75-100)
- pre-emergent herbicidal rating (Quackgrass [3]): 3 (75-100)
- post-emergent herbicidal rating (Downy Brome [4]; 1.12 kg/h): 0 (0-24)
- post-emergent herbicidal rating (Downy Brome [4]; 11.2 kg/h): 0 (0-24)
- post-emergent herbicidal rating (Smartweed [5]; 1.12 kg/h): 1 (25-49)
- post-emergent herbicidal rating (Smartweed [5]; 5.6 kg/h): 4 (100)
- post-emergent herbicidal rating (Smartweed [5]; 11.2 kg/h): 4 (100)
- post-emergent herbicidal rating (Lambsquarters [6]; 1.12 kg/h): 4 (100)
- post-emergent herbicidal rating (Lambsquarters [6]; 5.6 kg/h): 4 (100)
- post-emergent herbicidal rating (Lambsquarters [6]; 11.2 kg/h): 4 (100)
- post-emergent herbicidal rating (Nutsedge [7]; 5.6 kg/h): 0 (0-24)
- post-emergent herbicidal rating (Nutsedge [7]; 11.2 kg/h): 0 (0-24)
- post-emergent herbicidal rating (Quackgrass [8]; 5.6 kg/h): 0 (0-24)
- post-emergent herbicidal rating (Quackgrass [8]; 11.2 kg/h): 0 (0-24)
- post-emergent herbicidal rating (Johnson Grass [9]; 5.6 kg/h): 1 (25-49)
- post-emergent herbicidal rating (Johnson Grass [9]; 11.2 kg/h): 0 (0-24)
- pre-emergent herbicidal rating (Downy Brome [10]; 1.12 kg/h): 0 (0-24)
- pre-emergent herbicidal rating (Downy Brome [10]; 5.6 kg/h): 0 (0-24)
- pre-emergent herbicidal rating (Downy Brome [10]; 11.2 kg/h): 0 (0-24)
- post-emergent herbicidal rating (Morning Glory [11]; 1.12 kg/h): 2 (50-74)
- post-emergent herbicidal rating (Morning Glory [11]; 5.6 kg/h): 2 (50-74)
- post-emergent herbicidal rating (Morning Glory [11]; 11.2 kg/h): 2 (50-74)
- pre-emergent herbicidal rating (Morning Glory [12]; 1.12 kg/h): 1 (25-49)
- pre-emergent herbicidal rating (Morning Glory [12]; 5.6 kg/h): 3 (75-100)
- pre-emergent herbicidal rating (Morning Glory [12]; 11.2 kg/h): 2 (50-74)
- pre-emergent herbicidal rating (Johnson Grass [13]): 0 (0-24)
- post-emergent herbicidal rating (Cocklebur [14]; 1.12 kg/h): 2 (50-74)
- post-emergent herbicidal rating (Cocklebur [14]; 5.6 kg/h): 3 (75-99) and 4 (100)
- post-emergent herbicidal rating (Cocklebur [14]; 11.2 kg/h): 3 (75-99)
- pre-emergent herbicidal rating (Nutsedge [15]): 0 (0-24)
- post-emergent herbicidal rating (Barnyard Grass [16]; 1.12 kg/h): 0 (0-24)
- post-emergent herbicidal rating (Barnyard Grass [16]; 11.2 kg/h): 1 (25-49)
- pre-emergent herbicidal rating (Velvetleaf [17]; 1.12 kg/h): 1 (25-49)
- pre-emergent herbicidal rating (Velvetleaf [17]; 5.6 kg/h): 3 (75-100)
- pre-emergent herbicidal rating (Velvetleaf [17]; 11.2 kg/h): 3 (75-100)
- post-emergent herbicidal rating (Velvetleaf [18]; 1.12 kg/h): 1 (25-49)
- post-emergent herbicidal rating (Velvetleaf [18]; 5.6 kg/h): 3 (75-99)
- post-emergent herbicidal rating (Velvetleaf [18]; 11.2 kg/h): 2 (50-74)
- pre-emergent herbicidal rating (Barnyard Grass [19]; 1.12 kg/h): 0 (0-24)
- pre-emergent herbicidal rating (Barnyard Grass [19]; 5.6 kg/h): 1 (25-49)
- pre-emergent herbicidal rating (Barnyard Grass [19]; 11.2 kg/h): 0 (0-24)
- post-emergent herbicidal rating (Canada Thistle [20]; 5.6 kg/h): 4 (100)
- post-emergent herbicidal rating (Canada Thistle [20]; 11.2 kg/h): 3 (75-99)
- pre-emergent herbicidal rating (Smartweed [21]; 1.12 kg/h): 1 (25-49)
- pre-emergent herbicidal rating (Smartweed [21]; 5.6 kg/h): 2 (50-74)
- pre-emergent herbicidal rating (Smartweed [21]; 11.2 kg/h): 2 (50-74)
- pre-emergent herbicidal rating (Canada Thistle [22]): 3 (75-100)

Structure (SMILES): CCOC(=N)Cn1c(=O)sc2ccccc21 [Compound 12]
- pre-emergent herbicidal rating (Cocklebur [1]; 1.12 kg/h): 1 (25-49)
- pre-emergent herbicidal rating (Cocklebur [1]; 5.6 kg/h): 2 (50-74)
- pre-emergent herbicidal rating (Cocklebur [1]; 11.2 kg/h): 2 (50-74)
- pre-emergent herbicidal rating (Lambsquarters [2]; 1.12 kg/h): 2 (50-74)
- pre-emergent herbicidal rating (Lambsquarters [2]; 5.6 kg/h): 3 (75-100)
- pre-emergent herbicidal rating (Lambsquarters [2]; 11.2 kg/h): 3 (75-100)
- pre-emergent herbicidal rating (Quackgrass [3]): 2 (50-74)
- post-emergent herbicidal rating (Downy Brome [4]; 0.28 kg/h): 0 (0-24)
- post-emergent herbicidal rating (Downy Brome [4]; 1.12 kg/h): 0 (0-24)
- post-emergent herbicidal rating (Downy Brome [4]; 5.6 kg/h): 0 (0-24)
- post-emergent herbicidal rating (Downy Brome [4]; 11.2 kg/h): 0 (0-24)
- post-emergent herbicidal rating (Smartweed [5]; 0.28 kg/h): 2 (50-74)
- post-emergent herbicidal rating (Smartweed [5]; 1.12 kg/h): 4 (100)
- post-emergent herbicidal rating (Smartweed [5]; 5.6 kg/h): 4 (100)
- post-emergent herbicidal rating (Smartweed [5]; 11.2 kg/h): 4 (100)
- post-emergent herbicidal rating (Lambsquarters [6]; 0.28 kg/h): 2 (50-74)
- post-emergent herbicidal rating (Lambsquarters [6]; 1.12 kg/h): 4 (100)
- post-emergent herbicidal rating (Lambsquarters [6]; 5.6 kg/h): 4 (100)
- post-emergent herbicidal rating (Lambsquarters [6]; 11.2 kg/h): 4 (100)
- post-emergent herbicidal rating (Nutsedge [7]; 11.2 kg/h): 0 (0-24)
- post-emergent herbicidal rating (Quackgrass [8]; 11.2 kg/h): 2 (50-74)
- post-emergent herbicidal rating (Johnson Grass [9]; 11.2 kg/h): 0 (0-24)
- pre-emergent herbicidal rating (Downy Brome [10]; 1.12 kg/h): 0 (0-24)
- pre-emergent herbicidal rating (Downy Brome [10]; 5.6 kg/h): 0 (0-24)
- pre-emergent herbicidal rating (Downy Brome [10]; 11.2 kg/h): 0 (0-24)
- post-emergent herbicidal rating (Morning Glory [11]; 0.28 kg/h): 1 (25-49)
- post-emergent herbicidal rating (Morning Glory [11]; 1.12 kg/h): 2 (50-74)
- post-emergent herbicidal rating (Morning Glory [11]; 5.6 kg/h): 2 (50-74)
- post-emergent herbicidal rating (Morning Glory [11]; 11.2 kg/h): 2 (50-74)
- pre-emergent herbicidal rating (Morning Glory [12]; 1.12 kg/h): 1 (25-49)
- pre-emergent herbicidal rating (Morning Glory [12]; 5.6 kg/h): 1 (25-49)
- pre-emergent herbicidal rating (Morning Glory [12]; 11.2 kg/h): 3 (75-100)
- pre-emergent herbicidal rating (Johnson Grass [13]): 0 (0-24)
- post-emergent herbicidal rating (Cocklebur [14]; 0.28 kg/h): 1 (25-49)
- post-emergent herbicidal rating (Cocklebur [14]; 1.12 kg/h): 2 (50-74)
- post-emergent herbicidal rating (Cocklebur [14]; 5.6 kg/h): 3 (75-99)
- post-emergent herbicidal rating (Cocklebur [14]; 11.2 kg/h): 3 (75-99)
- pre-emergent herbicidal rating (Nutsedge [15]): 0 (0-24)
- post-emergent herbicidal rating (Barnyard Grass [16]; 0.28 kg/h): 0 (0-24)
- post-emergent herbicidal rating (Barnyard Grass [16]; 1.12 kg/h): 0 (0-24)
- post-emergent herbicidal rating (Barnyard Grass [16]; 5.6 kg/h): 0 (0-24)
- post-emergent herbicidal rating (Barnyard Grass [16]; 11.2 kg/h): 1 (25-49)
- pre-emergent herbicidal rating (Velvetleaf [17]; 1.12 kg/h): 1 (25-49)
- pre-emergent herbicidal rating (Velvetleaf [17]; 5.6 kg/h): 2 (50-74)
- pre-emergent herbicidal rating (Velvetleaf [17]; 11.2 kg/h): 3 (75-100)
- post-emergent herbicidal rating (Velvetleaf [18]; 0.28 kg/h): 1 (25-49)
- post-emergent herbicidal rating (Velvetleaf [18]; 1.12 kg/h): 2 (50-74)
- post-emergent herbicidal rating (Velvetleaf [18]; 5.6 kg/h): 3 (75-99)
- post-emergent herbicidal rating (Velvetleaf [18]; 11.2 kg/h): 3 (75-99)
- pre-emergent herbicidal rating (Barnyard Grass [19]; 1.12 kg/h): 0 (0-24)
- pre-emergent herbicidal rating (Barnyard Grass [19]; 5.6 kg/h): 0 (0-24)
- pre-emergent herbicidal rating (Barnyard Grass [19]; 11.2 kg/h): 2 (50-74)
- post-emergent herbicidal rating (Canada Thistle [20]; 11.2 kg/h): 2 (50-74)
- pre-emergent herbicidal rating (Smartweed [21]; 1.12 kg/h): 1 (25-49)
- pre-emergent herbicidal rating (Smartweed [21]; 5.6 kg/h): 2 (50-74)
- pre-emergent herbicidal rating (Smartweed [21]; 11.2 kg/h): 3 (75-100)
- pre-emergent herbicidal rating (Canada Thistle [22]): 3 (75-100)
